Assay results reported in the supplement of paper PMC4604168 (melanoma cell lines).
The other results are listed elsewhere or left out. Repeats are few or missing, and single values can be far off.

system: SkMel5; assay: cell count relative to DMSO control; melanoma cells; higher = more viable cells; details: library dose: standard library concentration; 72 h
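Also: cells treated in 1,536-well plates, then fixed and DAPI-stained, with nuclei counted from automated high-throughput microscope images.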

Row | Structure (SMILES) | cell count
1 | O=C(/C=C/c1cccnc1)NCCCCC1CCN(C(=O)c2ccccc2)CC1 + COc1cc(N2CCC(N3CCN(C)CC3)CC2)ccc1Nc1ncc(Cl)c(Nc2ccccc2S(=O)(=O)C(C)C)n1 [NVP-TAE684] (first compound 0.05 µM, partner dose 0.4 µM) | 86.9%
2 | Cc1ccc(Nc2nccc(N(C)c3ccc4c(C)n(C)nc4c3)n2)cc1S(N)(=O)=O [Pazopanib] + COc1cc2ncnc(Nc3ccc(Oc4ccccc4)cc3)c2cc1OC [SrcI1] (first compound 2 µM, partner dose 10 µM) | 54.7%
3 | Cc1ccc(Nc2nccc(N(C)c3ccc4c(C)n(C)nc4c3)n2)cc1S(N)(=O)=O [Pazopanib] + OCCn1cc(-c2cnc3nnn(Cc4ccc5ncccc5c4)c3n2)cn1 [PF04217903] (first compound 2 µM, partner dose 5 µM) | 78.7%
4 | Cc1ccc(Nc2nccc(N(C)c3ccc4c(C)n(C)nc4c3)n2)cc1S(N)(=O)=O [Pazopanib] + Cn1cc(/C=C2\C(=O)Nc3cccnc32)c2ccccc21 [GW441756] (first compound 2 µM, partner dose 2 µM) | 81.6%
5 | Cc1ccc(Nc2nccc(N(C)c3ccc4c(C)n(C)nc4c3)n2)cc1S(N)(=O)=O [Pazopanib] + OCc1c[nH]c2ccccc12 [Indole-3-carbinol] (first compound 2 µM, partner dose 4 µM) | 119%
6 | CC1(C)CCC(c2ccc(Cl)cc2)=C(CN2CCN(c3ccc(C(=O)NS(=O)(=O)c4ccc(N[C@H](CCN5CCOCC5)CSc5ccccc5)c(S(=O)(=O)C(F)(F)F)c4)cc3)CC2)C1 + COc1cc2c(Oc3ccc4[nH]c(C)cc4c3F)ncnc2cc1OCCCN1CCCC1 [cediranib] (first compound 2 µM, partner dose 2 µM) | 103%
